From article PMC4336329 (PLoS ONE, 2015)
In all, about 310,000 compounds went through this assay and about 2,200 (0.71%) showed an effect of 50% or more. The effect is printed as a negative number. Some of the results follow.

Each compound was assayed against human ether-à-go-go-related gene (hERG) potassium channel (human, UniProt Q12809) (assay: primary screen, population patch clamp on CHO cells stably expressing hERG).
human ether-à-go-go-related gene (hERG) potassium channel, sequence (Q12809 whole entry, looked up): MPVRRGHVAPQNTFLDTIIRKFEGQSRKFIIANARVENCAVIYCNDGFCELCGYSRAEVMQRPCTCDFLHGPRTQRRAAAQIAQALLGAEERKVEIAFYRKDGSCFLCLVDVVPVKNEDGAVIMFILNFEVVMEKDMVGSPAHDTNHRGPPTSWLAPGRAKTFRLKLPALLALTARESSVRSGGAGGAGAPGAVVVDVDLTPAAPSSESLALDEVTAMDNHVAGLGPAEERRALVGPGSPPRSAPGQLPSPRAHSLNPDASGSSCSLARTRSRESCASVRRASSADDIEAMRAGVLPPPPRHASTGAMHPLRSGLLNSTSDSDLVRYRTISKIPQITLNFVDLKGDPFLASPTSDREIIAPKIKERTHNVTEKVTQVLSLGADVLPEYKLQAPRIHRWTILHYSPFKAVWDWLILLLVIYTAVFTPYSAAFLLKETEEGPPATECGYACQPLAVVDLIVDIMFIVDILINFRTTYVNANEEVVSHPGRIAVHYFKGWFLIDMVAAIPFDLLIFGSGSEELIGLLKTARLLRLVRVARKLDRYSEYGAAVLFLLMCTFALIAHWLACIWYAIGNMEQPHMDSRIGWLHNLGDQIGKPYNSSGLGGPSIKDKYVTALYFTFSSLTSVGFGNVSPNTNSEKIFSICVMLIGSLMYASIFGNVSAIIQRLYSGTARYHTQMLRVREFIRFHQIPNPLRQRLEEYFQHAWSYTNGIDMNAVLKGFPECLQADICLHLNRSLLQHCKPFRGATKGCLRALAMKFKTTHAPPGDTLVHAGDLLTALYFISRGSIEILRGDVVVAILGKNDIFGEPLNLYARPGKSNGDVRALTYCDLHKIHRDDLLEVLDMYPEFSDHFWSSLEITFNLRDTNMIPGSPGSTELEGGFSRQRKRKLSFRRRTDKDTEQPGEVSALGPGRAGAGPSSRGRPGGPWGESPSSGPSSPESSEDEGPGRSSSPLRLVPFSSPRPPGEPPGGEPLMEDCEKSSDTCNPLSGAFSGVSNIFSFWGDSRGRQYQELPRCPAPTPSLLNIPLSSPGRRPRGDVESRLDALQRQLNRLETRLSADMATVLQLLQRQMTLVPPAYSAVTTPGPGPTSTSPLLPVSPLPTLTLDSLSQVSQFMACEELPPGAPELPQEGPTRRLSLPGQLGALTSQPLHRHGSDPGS

Row | SMILES | hERG current change (%, negative = inhibition) at 1uM
1 | C=CCn1c(SCCOc2ccc(OC)cc2)nnc1C(CO)NC(=O)c1ccc(OC)cc1 (stereo not drawn) | 3.07%
2 | CCc1ccc(NC(=O)N[C@H](C(=O)O)C(C)CC)cc1 (stereo partly drawn) | 12.4%
3 | O=C(COC(=O)c1cnccn1)NCCc1ccccc1 | 10.8%
4 | COc1ccc(NCc2nn(CC(=O)c3ccc(Br)cc3)c3[n+]2CCCCC3)cc1.[Br-] | 13%
5 | CC(=O)c1cc2c(cc1NC(=O)CCn1cccc1)OCO2 | 3.55%
6 | FC(F)(F)c1nc(SCc2ccc(Cl)cc2Cl)n[nH]1 | 4.63%
7 | Cc1ccc(NC2CCCN(C(=O)c3cc(C(C)C)[nH]n3)C2)cc1C (stereo not drawn) | -0.968%
8 | O=C(CNc1cccc2ccccc12)c1ccc([N+](=O)[O-])cc1 | 4.77%
9 | CCC(C)NC(=O)CO/N=C/c1ccc(C(=O)OC)cc1 (stereo not drawn) | 14.1%
10 | COc1cccc(-n2c(SCc3c(C)noc3C)nnc2-c2cccc(S(=O)(=O)N(C)C)c2)c1 | 2.87%
11 | Cc1ccccc1NC(=O)c1ccc(CSc2ncccn2)cc1 | 6.41%
12 | COCCCNc1nc(N)c([N+](=O)[O-])c(Nc2cc(OC)ccc2OC)n1 | 14.4%
13 | CC(CC(=O)Nc1ccc(Cl)c([N+](=O)[O-])c1)c1ccccc1 (stereo not drawn) | 11.5%
14 | Cc1ccc(C)c(NC(=O)CCC(=O)NNC(=O)c2cccc([N+](=O)[O-])c2)c1 | -7.94%
15 | CCOC(=O)N1CCC(NC(=O)C2CCCN(S(C)(=O)=O)C2)CC1 (stereo not drawn) | 13.8%
16 | COc1cc(-c2c(C#N)c(N)nc3c2CCCC3)ccc1O | 10.2%
17 | Cc1ccc2c(c1)C(CCN)C(=O)N2Cc1ccccc1.Cl (stereo not drawn) | 5.85%
18 | OCC1(Cc2ccc(F)cc2)CCCN(CCc2ccccc2)C1 (stereo not drawn) | -0.0287%
19 | Cn1c(=O)c2ccccc2n(CC(=O)Nc2ccc3c(c2)OCCO3)c1=O | 13.2%
20 | CCN(CC)S(=O)(=O)c1cc(NC(=O)[C@@H](NC(N)=O)C(C)C)ccc1C | 10.8%
21 | NC(=O)Nc1n[nH]c(-c2ccccc2)n1 | 16.4%
22 | CC(=O)Oc1ccc(-c2cc3c(OC(C)=O)cc(OC(C)=O)cc3oc2=O)cc1 | 15.7%
23 | O=C1c2cccnc2-c2ncccc21 | 10.1%

Row | SMILES | hERG current change (%, negative = inhibition) at 1uM
24 | COc1cccc(/C=C2\SC(=O)N(CCC(=O)NNC(=O)c3cccc(Cl)c3)C2=O)c1 | 2.7%
25 | COc1ccc2sc(-c3ccccc3OC)c(-c3ccc(OC)nc3)c2c1 | 15%
26 | Cc1ccc(N2OC3C(=O)NC(=O)C3C2c2ccco2)cc1 (stereo not drawn) | 12.7%
27 | O=C(Cc1sc(-c2ccccc2Cl)nc1-c1ccccc1)Nc1ccccc1 | 13.6%
28 | COC(=O)CCCC1=CC2=C(c3ccccc3)C(=O)C(C)(OC(=O)C3CCCC3)C(=O)C2=CN1Cc1ccco1 (stereo not drawn) | 4.57%
29 | Cc1ccc(C(=O)c2ccccc2C(=O)OCC(=O)NC(=O)NC(C)(C)C)cc1 | 7.78%
30 | O=C(c1cccc(S(=O)(=O)NCc2ccccc2)c1)N1CCN(c2cccc(C(F)(F)F)c2)CC1 | 13.9%
31 | O=C(O)CSCC(=O)NCc1ccccc1Cl | 13.9%
32 | COc1ccccc1/C=C/CN1CCN(Cc2ccc(F)cc2)C(CCO)C1 (stereo not drawn) | 5.29%
33 | Cc1ccc(-c2cc3nc(-c4ccccc4)cc(N4CCC5(CC4)OCCO5)n3n2)cc1 | 10.7%
34 | Clc1ccc(Oc2cnns2)c(Cl)c1 | 3.17%
35 | CC(C)N1CCN(Cc2ccc3c(c2)OCCO3)CC1CCO (stereo not drawn) | 7.42%
36 | O=C(Nc1nc2ccc(F)cc2s1)C1=NN(c2ccccc2)C(=O)CC1 | 1.46%
37 | CCn1cnc2cc(NCc3ccncc3)ccc21 | 10.4%
38 | CC(=NCCN1CCOCC1)c1c(O)n(-c2ccccc2C)c(=O)[nH]c1=O | 4.13%
39 | COc1ccc(Cl)cc1NC(=O)CCc1ccccc1 | 12.3%
40 | CC(=O)Nc1cccc(NC(=O)CSc2ccc(-c3ccccn3)nn2)c1 | 8.15%
41 | O=c1c2ccccc2oc2cc(-c3ccc(CN4CCOCC4)cc3)ccc12 | 14.4%
42 | Cc1ccc(C(=O)Nc2ncc(Cc3ccc(SC(F)F)cc3)s2)cc1 | 10.8%
43 | CCC(=O)N(CCC1(c2ccccc2OC)CCOC(C(C)C)C1)Cc1ccco1 (stereo not drawn) | 7.61%
44 | COC(=O)c1cc(OC)c(OC)cc1NC(=O)c1cc(OC)cc(OC)c1 | 5.88%
45 | CC(C)(C)c1ccc(C2/C(=C(\O)c3ccc4c(c3)OCCO4)C(=O)C(=O)N2CCCN2CCOCC2)cc1 (stereo not drawn) | 7.85%
46 | COc1ccc(C(=O)O)cc1F | 13%

Row | SMILES | hERG current change (%, negative = inhibition) at 1uM
47 | Cc1cccc(CCNC(=O)C2CCC(CNS(=O)(=O)c3cccs3)CC2)c1 (stereo not drawn) | 11.5%
48 | COC(=O)c1c(C)[nH]c(C(=O)C(C)[N+]23CCN(CC2)CC3)c1C.[Cl-] (stereo not drawn) | 11.6%
49 | N/C(COc1ccccc1)=N\NC(=O)c1cccnc1Oc1ccccc1 | 16.4%
50 | CC(CNC(=O)c1cc(COc2c(F)cccc2F)on1)c1ccccc1 (stereo not drawn) | 0.341%
51 | NC(=O)c1ccsc1N | 12.3%
52 | CC1CCCCN1CCNC(=O)CN1C(=O)COc2ccccc21 (stereo not drawn) | 12.5%
53 | Cc1ccc(CSc2nnc(NC(=O)Cn3cnc4ccccc4c3=O)s2)cc1 | 9.39%
54 | FC(F)(F)c1cnc2c(c1)Nc1ccccc1S2 | 5.69%
55 | CCCOc1ccc(N2CC(C(=O)Nc3ccc4c(c3)OCO4)CC2=O)cc1 (stereo not drawn) | 13.9%
56 | Cc1nc2nc[nH]n2c(=O)c1NS(=O)(=O)c1ccc(F)cc1 | 19.5%
57 | Cc1cc(C)c(S(=O)(=O)N(C)Cc2cnn(C)c2)c(C)c1 | 3.65%
58 | Cc1ccc(OCCNS(=O)(=O)c2cccs2)cc1 | 10.5%
59 | CCCCn1nnnc1NCc1ccc(C)cc1 | 15.1%
60 | O=C(CSc1nnc(NC(=O)c2c(F)cccc2F)s1)NC1CCCCC1 | 14.1%
61 | O=[N+]([O-])c1ccc(Sc2ccccc2)nc1 | 7.5%
62 | CCc1ccc(-c2csc(NC(=O)c3cccnc3)n2)cc1 | 9.24%
63 | Cc1ccc(OCc2cc(C(=O)N3CCc4[nH]cnc4C3c3ccccn3)no2)cc1C (stereo not drawn) | 6.76%
64 | CC(=O)N1CCN(C(=O)c2ccc(-c3ccccc3Cl)o2)CC1 | 0.228%
65 | Cc1nc(C)c(-c2ccc(SCc3ccc(Cl)cc3)nn2)s1 | 10.3%
66 | CNC(=O)CCCN1C(=O)c2ccccc2Sc2ncccc21 | 16.6%
67 | COC(=O)Nc1ccc(S(=O)(=O)N2CCCC(C(=O)N3CCCCC3)C2)cc1 (stereo not drawn) | 4.74%
68 | O=C(OCC(=O)N1CCCC1)c1cccc(Br)c1 | 5.76%
69 | CCOC(=O)[C@H]1[C@H]2COc3ccccc3[C@@H]2N2C(=O)c3cc(OC)ccc3NC(=O)[C@@]12C | 5.16%

Row | SMILES | hERG current change (%, negative = inhibition) at 1uM
70 | CCn1c(=O)n(CC(=O)N2CC(C)CC(C)C2)c(=O)c2ccccc21 (stereo not drawn) | -8.48%
71 | Nc1nc(SCCO)[nH]c(=O)c1NC(=O)c1ccco1 | 15%
72 | C=CCC1(CC=C)CCCN1C(=O)Cn1nnnc1CN(C)C(C)C | 16.4%
73 | CCCC(=O)Nc1ccc(N2CCOCC2)cc1 | 15.6%
74 | COc1cccc(C(=O)N2CCC3(CC2)OCCO3)c1 | 11%
75 | CCc1ccc(NC(=O)C2CCCN2C(=O)NC2CCCCC2)cc1 (stereo not drawn) | 14.9%
76 | Cc1ccc(C(=O)c2ccc(C)cc2)cc1 | 15.2%
77 | COc1cc(OC)cc(C(=O)NNc2nc3cc4c(cc3s2)OCO4)c1 | 13.1%
78 | Cc1ccc(NC(=O)Cn2cc(C=O)c3ccccc32)cc1C | 11.1%
79 | COC(=O)C1CN(C(=O)COc2cc(C)cc(C)c2)c2ccccc2O1 (stereo not drawn) | 14.3%
80 | CC1(C)C[C@@H]1C(=O)N/C(=C\CCCCSC[C@H](N)C(=O)O)C(=O)[O-].[Na+] | 9.33%
81 | CCCCS(=O)(=O)c1sc2nc3c(cc2c1N)CCCC3 | 13.7%
82 | CNc1ccc(/C=C(\C#N)c2ccccn2)cc1[N+](=O)[O-] | 18.5%
83 | CC(C)CCn1c(CN2CCN(c3cccc(Cl)c3)CC2)nc2c1c(=O)n(C)c(=O)n2C | 7.88%
84 | O=[N+]([O-])c1cc(Cl)cc(/C=N/n2cnnc2)c1O | 13.4%
85 | CCN(CC)CCCNc1nc2ccccc2c2nc(-c3ccncc3)nn12 | -34.6%
86 | O=C(CNC(=O)C1CCCCC1)NC1CCCCC1 | 13.5%
87 | COc1ccc(C(=O)NC(=S)NNC(=O)[C@H]2C[C@@H]2c2ccccc2)cc1OC | 13.2%
88 | CC(C)(C)c1ccc(OCCC(=O)OCC(=O)NC(=O)NC2CCCC2)cc1 | 6.19%
89 | COc1ccc(NC(=O)Nc2nnc(-c3ccncc3)s2)cc1 | 25.4%
90 | Cc1ccc(S(=O)(=O)NCC(=O)N(c2ccccc2)C(C(=O)NCc2ccccc2)c2ccco2)cc1 (stereo not drawn) | -0.277%
